# Measurements taken from the supplement of paper PMC8728848.
# This is one part of the list.
# How the values were obtained:
# Assay in all cases: glycan array binding signal (z-score within array); higher = stronger binding
# Conditions in all cases: glycan notation: IUPAC condensed, linker removed
# [1] = target: Gal(a1-6)Glc
# Outline: (§1)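 Columns mapping to the same glycan were averaged after glycan names were converted to IUPAC-condensed notation. The data come from 3228 arrays in the Consortium for Functional Glycomics database, limited to those with an available protein sequence. Binding is reported as a within-array Z-score averaged across arrays of one protein sequence and across linkers.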
# [2] = target: Gal(b1-2)Gal
# Outline: as §1
# [3] = target: Gal(b1-3)Gal
# Outline: as §1
# [4] = target: Gal(b1-3)Gal(b1-4)GlcNAc
# Outline: as §1
# [5] = target: Gal(b1-3)GalNAc
# Outline: as §1
# [6] = target: Gal(b1-3)GalNAc(a1-3)[Fuc(a1-2)]Gal(b1-4)Glc
# Outline: as §1
# [7] = target: Gal(b1-3)GalNAc(a1-3)[Fuc(a1-2)]Gal(b1-4)GlcNAc
# Outline: as §1
# [8] = target: Gal(b1-3)GalNAc(b1-3)Gal
# Outline: as §1
# [9] = target: Gal(b1-3)GalNAc(b1-3)Gal(a1-4)Gal(b1-4)Glc
# Outline: as §1
# [10] = target: Gal(b1-3)GalNAc(b1-4)Gal(b1-4)Glc
# Outline: as §1
# [11] = target: Gal(b1-3)GalNAc(b1-4)[Neu5Ac(a2-3)]Gal(b1-4)Glc
# Outline: as §1
# [12] = target: Gal(b1-3)GlcNAc
# Outline: as §1
# [13] = target: Gal(b1-3)GlcNAc(a1-3)Gal(b1-4)GlcNAc
# Outline: as §1
# [14] = target: Gal(b1-3)GlcNAc(a1-6)Gal(b1-4)GlcNAc
# Outline: as §1
# [15] = target: Gal(b1-3)GlcNAc(b1-2)Man
# Outline: as §1
# [16] = target: Gal(b1-3)GlcNAc(b1-2)Man(a1-3)[Gal(b1-3)GlcNAc(b1-2)Man(a1-6)]Man(b1-4)GlcNAc(b1-4)GlcNAc
# Outline: as §1
# [17] = target: Gal(b1-3)GlcNAc(b1-2)Man(a1-3)[Gal(b1-3)GlcNAc(b1-2)Man(a1-6)]Man(b1-4)GlcNAc(b1-4)[Fuc(a1-6)]GlcNAc
# Outline: as §1
# [18] = target: Gal(b1-3)GlcNAc(b1-2)Man(a1-3)[GlcNAc(b1-4)][Gal(b1-3)GlcNAc(b1-2)Man(a1-6)]Man(b1-4)GlcNAc(b1-4)GlcNAc
# Outline: as §1
# [19] = target: Gal(b1-3)GlcNAc(b1-2)[Gal(b1-3)GlcNAc(b1-6)]Man(a1-6)[Gal(b1-3)GlcNAc(b1-2)Man(a1-3)]Man(b1-4)GlcNAc(b1-4)GlcNAc
# Outline: as §1
# [20] = target: Gal(b1-3)GlcNAc(b1-3)Gal(b1-3)GlcNAc
# Outline: as §1
# [21] = target: Gal(b1-3)GlcNAc(b1-3)Gal(b1-4)Glc
# Outline: as §1
# [22] = target: Gal(b1-3)GlcNAc(b1-3)Gal(b1-4)GlcNAc
# Outline: as §1
# [23] = target: Gal(b1-3)GlcNAc(b1-3)Gal(b1-4)GlcNAc(b1-2)Man(a1-3)[Gal(b1-3)GlcNAc(b1-3)Gal(b1-4)GlcNAc(b1-2)Man(a1-6)]Man(b1-4)GlcNAc(b1-4)GlcNAc
# Outline: as §1
# [24] = target: Gal(b1-3)GlcNAc(b1-3)Gal(b1-4)GlcNAc(b1-2)[Gal(b1-3)GlcNAc(b1-3)Gal(b1-4)GlcNAc(b1-6)]Man(a1-6)[Gal(b1-3)GlcNAc(b1-3)Gal(b1-4)GlcNAc(b1-2)Man(a1-3)]Man(b1-4)GlcNAc(b1-4)[Fuc(a1-6)]GlcNAc
# Outline: as §1
# [25] = target: Gal(b1-3)GlcNAc(b1-3)Gal(b1-4)GlcNAc(b1-3)Gal(b1-4)GlcNAc(b1-2)[Gal(b1-3)GlcNAc(b1-3)Gal(b1-4)GlcNAc(b1-3)Gal(b1-4)GlcNAc(b1-6)]Man(a1-6)[Gal(b1-3)GlcNAc(b1-3)Gal(b1-4)GlcNAc(b1-3)Gal(b1-4)GlcNAc(b1-2)Man(a1-3)]Man(b1-4)GlcNAc(b1-4)[Fuc(a1-6)]GlcNAc
# Outline: as §1
# [26] = target: Gal(b1-3)GlcNAc(b1-3)Gal(b1-4)GlcNAc(b1-6)[Gal(b1-3)GlcNAc(b1-3)]Gal(b1-4)Glc
# Outline: as §1
# [27] = target: Gal(b1-3)GlcNAc(b1-3)Gal(b1-4)[Fuc(a1-3)]GlcNAc
# Outline: as §1
# [28] = target: Gal(b1-3)GlcNAc(b1-3)Gal(b1-4)[Fuc(a1-3)]GlcNAc(b1-6)[Gal(b1-3)GlcNAc(b1-3)]Gal(b1-4)Glc
# Outline: as §1
# [29] = target: Gal(b1-3)GlcNAc(b1-3)GalNAc
# Outline: as §1
# [30] = target: Gal(b1-3)GlcNAc(b1-6)Gal(b1-4)GlcNAc
# Outline: as §1
# [31] = target: Gal(b1-3)GlcNAc(b1-6)GalNAc
# Outline: as §1
# [32] = target: Gal(b1-3)GlcNAc(b1-6)[Gal(b1-3)]GalNAc
# Outline: as §1
# [33] = target: Gal(b1-3)GlcNAc6S
# Outline: as §1
# [34] = target: Gal(b1-3)[Fuc(a1-4)]GlcNAc
# Outline: as §1
# [35] = target: Gal(b1-3)[Fuc(a1-4)]GlcNAc(b1-2)Man
# Outline: as §1
# [36] = target: Gal(b1-3)[Fuc(a1-4)]GlcNAc(b1-2)Man(a1-3)[Gal(b1-3)[Fuc(a1-4)]GlcNAc(b1-2)Man(a1-6)]Man(b1-4)GlcNAc(b1-4)[Fuc(a1-6)]GlcNAc
# Outline: as §1
# [37] = target: Gal(b1-3)[Fuc(a1-4)]GlcNAc(b1-3)Gal(b1-3)[Fuc(a1-4)]GlcNAc
# Outline: as §1
# [38] = target: Gal(b1-3)[Fuc(a1-4)]GlcNAc(b1-3)Gal(b1-4)[Fuc(a1-3)]GlcNAc
# Outline: as §1
# [39] = target: Gal(b1-3)[Fuc(a1-4)]GlcNAc(b1-6)GalNAc
# Outline: as §1
# [40] = target: Gal(b1-3)[GlcNAc(b1-6)]GalNAc
# Outline: as §1
# [41] = target: Gal(b1-3)[Neu5Ac(a2-6)]GalNAc
# Outline: as §1
# [42] = target: Gal(b1-3)[Neu5Ac(a2-6)]GlcNAc(b1-4)Gal(b1-4)Glc
# Outline: as §1
# [43] = target: Gal(b1-3)[Neu5Ac(b2-6)]GalNAc
# Outline: as §1
# [44] = target: Gal(b1-4)Gal
# Outline: as §1
# [45] = target: Gal(b1-4)GalNAc(a1-3)[Fuc(a1-2)]Gal(b1-4)GlcNAc
# Outline: as §1
binder,measurement,setting,value
"LSL-150 (Laetiporus sulphureus), Q7Z8V1 (protein) MTDIYIPPEGLYFRLLGFASRQVIFARNSPSPDVGLSPVNDQATDQYFSLIYGTGEHAGLYAIKSKATGKVLFSRRPAEPYVGQIDGDGRYPDNWFKIEPGKTYLSKYFRLVQPSTGTALVSRTHLQPYFWNHPQTEVFDDQYFTFLFEDHHHHHH",glycan array binding signal (z-score),[1],-0.202
same,glycan array binding signal (z-score),[2],-0.204
same,glycan array binding signal (z-score),[3],-0.208
same,glycan array binding signal (z-score),[4],-0.195
same,glycan array binding signal (z-score),[5],-0.205
same,glycan array binding signal (z-score),[6],-0.207
same,glycan array binding signal (z-score),[7],-0.212
same,glycan array binding signal (z-score),[8],-0.21
same,glycan array binding signal (z-score),[9],-0.199
same,glycan array binding signal (z-score),[10],-0.208
same,glycan array binding signal (z-score),[11],-0.203
same,glycan array binding signal (z-score),[12],-0.205
same,glycan array binding signal (z-score),[13],-0.178
same,glycan array binding signal (z-score),[14],-0.203
same,glycan array binding signal (z-score),[15],-0.208
same,glycan array binding signal (z-score),[16],-0.199
same,glycan array binding signal (z-score),[17],-0.209
same,glycan array binding signal (z-score),[18],-0.205
same,glycan array binding signal (z-score),[19],-0.203
same,glycan array binding signal (z-score),[20],-0.203
same,glycan array binding signal (z-score),[21],-0.197
same,glycan array binding signal (z-score),[22],-0.124
same,glycan array binding signal (z-score),[23],0.005
same,glycan array binding signal (z-score),[24],-0.046
same,glycan array binding signal (z-score),[25],1.4
same,glycan array binding signal (z-score),[26],-0.029
same,glycan array binding signal (z-score),[27],-0.207
same,glycan array binding signal (z-score),[28],-0.209
same,glycan array binding signal (z-score),[29],-0.209
same,glycan array binding signal (z-score),[30],-0.205
same,glycan array binding signal (z-score),[31],-0.21
same,glycan array binding signal (z-score),[32],-0.204
same,glycan array binding signal (z-score),[33],-0.212
same,glycan array binding signal (z-score),[34],-0.208
same,glycan array binding signal (z-score),[35],-0.208
same,glycan array binding signal (z-score),[36],-0.209
same,glycan array binding signal (z-score),[37],-0.208
same,glycan array binding signal (z-score),[38],-0.202
same,glycan array binding signal (z-score),[39],-0.21
same,glycan array binding signal (z-score),[40],-0.194
same,glycan array binding signal (z-score),[41],-0.21
same,glycan array binding signal (z-score),[42],-0.215
same,glycan array binding signal (z-score),[43],-0.203
same,glycan array binding signal (z-score),[44],-0.2
same,glycan array binding signal (z-score),[45],-0.214
